Laboratory results reported in the supplement of paper PMC10441789.
This is one part of the list. Antibody binding of pooled human sera (four to six donors per pool; dilution not stated) to peptides of the Trypanosoma cruzi antigen TSSA on microarrays. Quantile-normalised fluorescence in arbitrary units, mean of duplicate arrays; higher = more binding. No active / inactive call. The uninfected pools are read here as the healthy donors of the same country. The strongest signals lie near the top of the scale (about 60,000).

Tests used:
Assay in all cases: antibody binding signal (normalised fluorescence) (arbitrary fluorescence units); higher = stronger serum antibody binding to peptide
[1] = system: pooled sera of chronic Chagas disease patients, Argentina
Description: (§1)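 Microarray of 15-residue peptides over residues 30-55 of Trypanosoma cruzi TSSAII, each with 1 to 10 substitutions at naturally variable positions, probed with one serum pool per country.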

[2] = system: pooled sera of chronic Chagas disease patients, Bolivia
Description: as §1

[3] = system: pooled sera of chronic Chagas disease patients, Brazil
Description: as §1

[4] = system: pooled sera of chronic Chagas disease patients, Colombia
Description: as §1

[5] = system: pooled sera of chronic Chagas disease patients, Mexico
Description: as §1

[6] = system: pooled sera of chronic Chagas disease patients, USA
Description: as §1

[7] = system: pooled sera of uninfected people, Argentina
Description: as §1

[8] = system: pooled sera of uninfected people, Bolivia
Description: as §1

[9] = system: pooled sera of uninfected people, Brazil
Description: as §1

[10] = system: pooled sera of uninfected people, Colombia
Description: as §1

[11] = system: pooled sera of uninfected people, Mexico
Description: as §1

[12] = system: pooled sera of uninfected people, USA
Description: as §1

Sequence | antibody binding signal [1] | antibody binding signal [2] | antibody binding signal [3] | antibody binding signal [4] | antibody binding signal [5] | antibody binding signal [6] | antibody binding signal [7] | antibody binding signal [8] | antibody binding signal [9] | antibody binding signal [10] | antibody binding signal [11] | antibody binding signal [12]
KEKKAAAGETPSPSG | 159 | 192 | 205 | 155 | 127 | 761 | 110 | 80.8 | 89.6 | 85 | 85.1 | 246
ENKTATGETPSPSGA | 567 | 1690 | 1690 | 268 | 196 | 7650 | 175 | 235 | 196 | 188 | 155 | 614
GKDKKPAAGGTPSQP | 269 | 199 | 242 | 1620 | 543 | 586 | 147 | 99.9 | 1020 | 144 | 133 | 89.4
NKPAAGGAPSPSGAS | 236 | 389 | 7980 | 2320 | 507 | 1260 | 730 | 894 | 533 | 366 | 157 | 1220
PPSGTEKKPATGEAP | 47400 | 50500 | 47000 | 787 | 9750 | 37300 | 1770 | 1070 | 1150 | 466 | 352 | 453
TPPSGKEKKAAAGGA | 5010 | 418 | 1060 | 1550 | 25900 | 1110 | 418 | 342 | 813 | 186 | 105 | 143
SGKEKKTAAGETPSP | 3240 | 408 | 3010 | 2250 | 5640 | 5480 | 193 | 188 | 89.3 | 231 | 176 | 263
TISTPPSGTEKKTAT | 35200 | 5920 | 30600 | 417 | 10700 | 4840 | 960 | 324 | 178 | 137 | 148 | 145
ENKPAAGETPSPPGA | 463 | 1280 | 21100 | 321 | 349 | 4320 | 183 | 329 | 174 | 136 | 126 | 377
DNKAAAGGAPSQSGA | 534 | 396 | 765 | 4060 | 461 | 300 | 384 | 504 | 307 | 213 | 545 | 238
SSTPPSGKDKKTATG | 19900 | 584 | 730 | 292 | 40500 | 632 | 147 | 185 | 120 | 147 | 99.1 | 117
STPPSGTENKTATGE | 44200 | 45800 | 46000 | 202 | 2550 | 34200 | 3600 | 361 | 303 | 449 | 386 | 235
PSGKENKAAAGGTPS | 8530 | 4010 | 11100 | 14800 | 11500 | 9990 | 4980 | 2710 | 236 | 538 | 346 | 173
PSGTEKKTAAGETPS | 9280 | 2800 | 4290 | 3030 | 3320 | 3930 | 316 | 390 | 178 | 1220 | 319 | 462
TENKTAAGGAPSQSG | 22400 | 775 | 602 | 5440 | 663 | 312 | 499 | 267 | 859 | 219 | 700 | 247
KENKTATGEAPSPPG | 12000 | 20900 | 18800 | 669 | 739 | 19100 | 182 | 136 | 184 | 170 | 138 | 138
PPSGKDKKAAAGGTP | 983 | 317 | 388 | 2410 | 24400 | 2190 | 137 | 453 | 428 | 257 | 86.2 | 98
GKDNKTAAGEAPSQP | 5390 | 15000 | 35700 | 3370 | 1960 | 6300 | 257 | 274 | 163 | 230 | 113 | 150
TPPSGKDNKTATGGT | 865 | 352 | 1940 | 1970 | 19900 | 2790 | 295 | 411 | 396 | 196 | 90.1 | 179
GKENKTAAGETPSPS | 8960 | 1730 | 11700 | 15100 | 10500 | 17200 | 658 | 211 | 149 | 181 | 318 | 1450
STPPSGKDNKAATGE | 13300 | 18500 | 12000 | 313 | 18600 | 5880 | 303 | 693 | 208 | 291 | 143 | 117
GKEKKPAAGETPSPP | 4590 | 405 | 874 | 3390 | 3280 | 3260 | 128 | 125 | 92.1 | 116 | 78.8 | 381
KKTATGGAPSPSGAS | 586 | 455 | 567 | 1970 | 338 | 501 | 265 | 213 | 155 | 135 | 167 | 289
TPPSGKEKKTATGGA | 10100 | 204 | 433 | 1450 | 7040 | 1010 | 376 | 273 | 104 | 160 | 107 | 154
TDKKPATGEAPSPSG | 44500 | 50200 | 45800 | 383 | 190 | 42400 | 868 | 646 | 387 | 238 | 245 | 150
